The source gives no read counts; variants with many changes may rest on few reads.
B1: OR4K15 (parent)
chain: GUUAACGGUCAUAGGCCAUGGAAACUAGGAGCACCAUUUCGCUGCCAGUGAAGAAAUGAACAAAGAAAAUCUGGGCCAGGCAGGCAUCAAAAGAAAUAGUCUUGCGCUCAACCAGAAAGUCUGUAAUCAUUUUAAGGGUA

Variants of: B1
Assay: self-cleavage, relative activity (ratio to wild type); higher = more cleavage; in vitro, sequencing; the parent is a self-cleaving ribozyme

Variant	self-cleavage
A24G U26G U43C A55G A60G U72A G79A A91G	0.18
A27G A91G A117G	0.62
A27C A82G A114G	0.24
U26C A52U U108A A111G	0.1
U26C A91G U102C	1.25
A24U A54G A69G A94G	1
G28C A33G U38A	0.52
U26C A55G A78G A90G	0.28
A27G U108C U122C	0
A27G U49C C61U A67G A118G	0.32
A27G A63U U100C	0.76
G29U U49A A110G A116G A140G	0.06
U26C A62G A67G A89G A111G	0.02
A30C A55G A59G U72C A110G	0.11
A27U A64U A96G U103C A114G	0.25
A27U A98G U103A	0.04
A27G A62G A68G A92G	0.67
A24G U43G A52G A68G U103C	1.93
C25A A56G A86G A92G A129G	0.75
A27G U49C A95G	1.86
A27G U37C U39C A78U	0.23
U26C U49G G119A U127C	2.47
A27G A66G U122C	1.29
U26C A36U U37C	0.75

Variant	self-cleavage
A27G A114G U124C	0.24
A27G U49C A98G C113A	0.01
U26C A36U A62U U108C	0.01
A30G A33C A66G U70C A118G	0.26
A27G U39C A59U A64U C76A A78G A111G	0.08
A27G A52U A78U	0.55
A24G U26A U39C A55G A117G	0.93
U26C A92G A125C U127C	0.21
U26C A56G A82G U102C A125U	0.86
C25U A92G A110G	0.03
A27G A30G A67G A95G A125U	1.62
A27G A33C A114G A118G	0.67
A27G A52C A54U A59U U122C A126G U127C	0.18
A24U U37C A62U G65U A91U	1.86
A30G A33G A64G	0.43
U26C A69U A78G C88U	0.18
A30C A51G A64G U70C U87C A89G A114U U120C	0.01
A27G G29A A62G A69G	1.34
A27G A52G A67G A78G A82U A92G	0.32
U26C A47C C105U U108C A110G A118G	0.01
C25U C46U A63U	1.1
U26G U70C A111G	0.05
G29A U49C A56U A68G A125G	0.32
G28U A33U U37C A78G	0.31

Variant	self-cleavage
U26C A54G A110G	0.09
U26C A78G A91G A116G	0.04
A24G U39A A63U A89C U120C	0.74
G29U A82U A111G	0.02
A27G U102C U127A	1.28
A27U A51G A62G	1.02
A24G U37C A64U	1.19
A27G A51G A90G	1.45
U26C U37G A52G U127C	1.1
A24U A33G U70C U132A	1.22
A27G C35U A55G A64G A94G	0.73
A30C A55U A116U	0.12
U26A A33G A90G C113U	0.1
A30G A36C A89G A118G	0.63
A27U A30G U49A A68U U72A C81U	0.21
A24G U26A A33U A68U A114U	0.06
A27G U37C G115A	0.31
A27G A54G A95G U122C	1.17
A27G C40U A66G A67G	0.62
A27G U70C A111G U120C	0.01
A30G A33G A64G A82C C85A	0.12
U26C U70C A110G	0.11
A24U A129G U130C	1.49
A27G U38C A126G	1.04

Variant	self-cleavage
U26A A47G A90G U108C A116G U133G A135G	0.01
G28A A67G A116U U132C	0.21
A24U U49A A52U C61A U70A A95G	1.34
A27G U37C A95G	1.35
U26C A47G A126G U132C	0.77
A24G U26C U124C U139A	1.05
A27G A30U U37C A89G U108C	0.03
A24G U39A A55G	0.63
U26C U37C U132C	2.07
A27G A56G A110U U127C A135G	0.78
U26A U49G U100C	0.71
U26C G80C U102C A114G	0.14
A30G A51G A60U	2.15
A24G U122C U131C	1.2
U26C A55G A90G A135G	0.6
A24U A30U G50A U120C	0.82
U26C A27U U127C	1.59
U26C A33U U57A A89G	1.36
A27G C88A G119A	1.95
G29U A55G G83A U133A	1.79
A27G A116G U130G A134G	0.41
G29A A30G A90G	1.09
A24G U102C U132A	2.12
U26C A47C G74A A114G U120C G137A	0.03

Variant	self-cleavage
A27G A60G U72C A82U	0.23
A24U A52G A92G A94U	1.41
A24G U49C A116U A125G	0.06
G29C A52G U57C A66U A94G	0.94
A27G A30G U43C A96G U97C	0
C25A A54G A55G A111G	0
A27G U97C A110G U130C	0.03
A27G A33U U37C A62G A69G U87C A117U A135G	0.91
A27G A89C A94G U103C A116G	0.17
A30G A52G A60G A96G	0.99
A27G A82U A116U	0.09
A27C U87C A90G	0.4
U26C G74A U120C	0.05
U26A U37C A82G	0.56
C25A A33G A60G	1.11
A27G A62G A135G	0.85
U26C A95G A96G A117G	2.67
G28U A52G A90G A110G	0.21
A24G U43C C77U G79U	0.25
G28A U102A U133C	0.96
A27G A51C A64U U108A	0.03
U26C A30G A98G	0.72
A27U A55G U102A U139C	0.64
A27G A55G U122C A129G	0.32

Variant	self-cleavage
A30G A52G A59G A66G A90U	1.11
C25A A78G U139C	0.17
A27G A33U A117G	2.35
A24G U39A U49A A64C	0.61
U26C A68G A90U	1.59
U26C A52G U108A	0.02
A24U A36G U37C A51G A68G	0.82
U26C A47G A89G	0.54
G29U A52G A118G	1.2
A27G A66G A111G	0.05
A27G A51U A68G C81U U102C U130C U139C	0.15
U26C A62U U131C	1.11
A30C A63G U87C A94U	1.94
A24G U43C U49C A64G	1.28
A24G U43C A94G U100C	2.28
A30G A51G A126G	1.44
A27G A114U U122C	0.03
A24U A92G A116G	0.72
U26C U39A U49C U108C	0.01
U26C A117G U131C	0.28
A27G A30G U37C A47U	0.67
A30G A36U U57C	0.95
A27G U38C A60G A91G	0.55
A24G U38A U108C	0.08

Variant	self-cleavage
A27U A92G U124C	1.12
A27G U70C A82G A96G	0.14
A27G A60G C88U	1.44
A24U U57C A92G	1.29
G29A U72A A89G U132C	0.29
U26C A64G A68G A129G	0.68
G29A A59G A63G A64G	1.75
A30C U100C A110G U124C	0.12
A27U A96G C112U	0.01
C25U A86G U87C A129U	0.32
U26A U43A A51U A82G	0.52
U26G A30G U103C	0.46
A27G A52G A69G A98G A110G	0.06
U26A U57C A69G U72A A78G	0.24
U26G A51G A82U C105U	0.09
A30G A47G A67U	1.38
G28U A51G G137A	1.49
A24G U43C G83A C121A	2.69
G29A U39A A56G A62G U100C U133C	2.96
U26C U43A A55G	2.28
A27G A36G U57A	1.02
A24G U87C U133C	1.3
A27G U43C A91G U102A C105U A117U	0.08

Source: the RNAGym collection of RNA variant scans (doi:10.7554/elife.90254)
